# Among all 39,000 compounds or so, about 220 (0.56%) showed activity. The list shows a part of the results.
# Test system: Escherichia coli K-12 BW25113
# Test: relative growth (OD600 normalised to plate interquartile mean) (fraction); higher = less growth inhibition, active = 0.2 or less
# Conditions: 50 µM; LB; incubation time: overnight (16-24 h)
# 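Note: static incubation at 37 °C against the wild-type strain, values averaged over two biological replicates.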
row,SMILES,relative growth
1,C[C@@H]1CN([C@@H](C)CO)C(=O)c2cccc(NC(=O)c3cnccn3)c2O[C@@H]1CN(C)Cc1ccc(C(=O)O)cc1,inactive: 0.997
2,COc1ccc(NC(=O)Nc2cccc3c2O[C@@H](CN(C)Cc2ccc(C(=O)Nc4ccccc4N)cc2)[C@H](C)CN([C@@H](C)CO)C3=O)cc1,inactive: 1
3,C[C@H]1CN([C@@H](C)CO)C(=O)Cc2cc(NC(=O)Nc3cccc(C(F)(F)F)c3)ccc2O[C@H]1CN(C)S(=O)(=O)c1ccc(Cl)cc1,inactive: 1.03
4,c1ccn(CCN2CCNCC2)c1,inactive: 1.01
5,O=C(C[C@H]1CC[C@@H]2[C@H](COC[C@H](O)CN2Cc2cc(F)ccc2F)O1)N[C@@H]1CCN(Cc2ccccc2)C1,inactive: 0.997
6,CO[C@@H](CN(C)S(=O)(=O)c1ccc(F)cc1)[C@H](C)CN([C@@H](C)CO)S(=O)(=O)c1cccc(Cl)c1,inactive: 1
7,CC(C)NC(=O)Nc1ccc2c(c1)CC(=O)N([C@@H](C)CO)C[C@H](C)[C@H](CN(C)Cc1ccc(-c3ccccc3)cc1)O2,inactive: 0.979
8,C[C@H](O)C#Cc1cnc2c(c1)C(=O)N([C@H](C)CO)C[C@H](C)[C@H](CN(C)C(=O)CN1CCOCC1)O2,inactive: 0.975
9,C[C@H](CO)N1C[C@H](C)[C@H](CN(C)C(=O)Nc2ccccc2)Oc2ccc(NC(=O)CCCN(C)C)cc2C1=O,inactive: 1.01
10,O=C(N[C@@H]1CC=CC[C@H](CC(=O)N(CCO)Cc2ccccc2)C(=O)NCC(c2ccccc2)OC1=O)OCC1c2ccccc2-c2ccccc21 (some centres not stated),inactive: 0.995
11,O=C(C[C@H]1CC[C@@H]2[C@H](COC[C@H](O)CN2S(=O)(=O)c2ccccc2)O1)N[C@H]1CCN(Cc2ccccc2)C1,inactive: 1.01
12,C[C@H]1CN([C@@H](C)CO)C(=O)c2c(c3ccccc3n2C)-c2ccccc2CO[C@H]1CN(C)Cc1ccccc1C(F)(F)F,inactive: 1.01
13,COc1ccc(CN(C)C[C@H]2OCCCC[C@@H](C)Oc3ccc(NC(=O)Nc4ccc(OC)cc4)cc3C(=O)N([C@@H](C)CO)C[C@H]2C)cc1,inactive: 0.958
14,Cc1ccc(S(=O)(=O)N(C)C[C@H]2Oc3ccc(NS(=O)(=O)c4cn(C)cn4)cc3CC(=O)N([C@@H](C)CO)C[C@@H]2C)cc1,inactive: 0.976
15,C[C@@H]1CN([C@@H](C)CO)C(=O)c2cc(NC(=O)C3CCCCC3)ccc2O[C@@H]1CN(C)Cc1ccc(Oc2ccccc2)cc1,inactive: 0.991
16,C[C@H]1CN([C@@H](C)CO)C(=O)CCCn2nncc2CO[C@H]1CN(C)S(=O)(=O)c1ccc(-c2ccccc2)cc1,inactive: 1.05
17,CO[C@@H]1CN(C)C(=O)c2ccc(NC(=O)C3CCOCC3)cc2OC[C@@H](C)N(C(=O)C2CCOCC2)C[C@H]1C,inactive: 1
18,COc1ccccc1S(=O)(=O)N(C)C[C@H]1Oc2cc(C#CCC(C)C)ccc2S(=O)(=O)N([C@@H](C)CO)C[C@H]1C,inactive: 0.999
19,Nc1nnc([C@H]2CCCO2)o1,inactive: 0.99
20,CN(C)/N=N/c1nc[nH]c1C(N)=O,inactive: 0.913
21,COc1ccc(NC(=O)Nc2ccc3c(c2)C(=O)N([C@H](C)CO)C[C@H](C)[C@@H](CN(C)Cc2ccc(C(F)(F)F)cc2)OCCCC[C@H](C)O3)cc1,inactive: 0.938

row,SMILES,relative growth
1,Cc1ccc(=O)n(-c2ccccc2)c1,inactive: 0.973
2,Cc1c(-c2ccnn2C)cc(C(=O)NCc2ccc(S(C)(=O)=O)cn2)c(=O)n1-c1cccc(C(F)(F)F)c1,inactive: 0.987
3,COc1ccc(CN(C)C[C@@H]2OCCCC[C@H](C)Oc3ccc(NC(=O)Nc4cccc5ccccc45)cc3C(=O)N([C@H](C)CO)C[C@H]2C)cc1,inactive: 0.974
4,C[C@H]1CN([C@@H](C)CO)C(=O)c2c(c3ccccc3n2C)-c2ccccc2CO[C@@H]1CN(C)C(=O)Nc1cccc(C(F)(F)F)c1,inactive: 1.03
5,Cc1noc(C)c1S(=O)(=O)N(C)C[C@@H]1Oc2ccc(NC(=O)C3CCCCC3)cc2CC(=O)N([C@@H](C)CO)C[C@@H]1C,inactive: 1.02
6,C=CC[C@H](CC(=O)NCCO)C(=O)NC[C@@H](OC(=O)[C@@H](CC=C)CC(=O)OC(C)(C)C)c1ccccc1,inactive: 0.974
7,CC(C)n1c(=S)[nH]c2ccccc21,inactive: 1.01
8,Cc1ccc(S(=O)(=O)N(C)C[C@@H]2OCCCC[C@@H](C)Oc3ccc(NC(=O)Nc4ccc5c(c4)OCO5)cc3C(=O)N([C@@H](C)CO)C[C@H]2C)cc1,inactive: 1.03
9,COc1ccc(S(=O)(=O)N(C)C[C@@H]2Oc3ccc(NC(=O)NC(C)C)cc3C(=O)N([C@@H](C)CO)C[C@@H]2C)cc1,inactive: 0.996
10,COc1ccc(CCN(C)CCCC(C#N)(c2ccc(OC)c(OC)c2)C(C)C)cc1OC.Cl (configuration not stated),inactive: 1.04
11,C[C@H](CO)N1C[C@H](C)[C@H](CN(C)C(=O)Nc2ccccc2)Oc2ccc(NS(=O)(=O)c3cn(C)cn3)cc2C1=O,inactive: 0.972
12,C[C@@H]1CN([C@@H](C)CO)C(=O)c2cc(NC(=O)c3ccccc3)ccc2O[C@@H](C)CCCCO[C@H]1CN(C)S(=O)(=O)c1ccc(Cl)cc1,inactive: 1.01
13,CO[C@@H](CN(C)C(=O)Nc1ccc(C(F)(F)F)cc1)[C@@H](C)CN(Cc1ccccc1Cl)[C@@H](C)CO,inactive: 1.03
14,O=C(/C=C/c1ccc(O)c(O)c1)O[C@H]1[C@H](O)C[C@](O)(C(=O)O)C[C@H]1OC(=O)/C=C/c1ccc(O)c(O)c1,inactive: 0.989
15,C[C@H](CO)N1C[C@H](C)[C@@H](CN(C)Cc2ccncc2)OCCCC[C@H](C)Oc2ccc(NC(=O)Nc3ccccc3)cc2C1=O,inactive: 1.01
16,Cc1noc(C)c1NC(=O)N(C)C[C@H]1Oc2ccc(NC(=O)c3ccncc3)cc2C(=O)N([C@@H](C)CO)C[C@@H]1C,inactive: 1
17,O=C(O)C=Cc1ccc(O)c(O)c1,inactive: 0.98
18,C[C@H](CO)N1C[C@H](C)[C@@H](CN(C)S(=O)(=O)c2ccc(Cl)cc2)OCCCC[C@H](C)Oc2ccc(NC(=O)c3ccncc3)cc2C1=O,inactive: 1.01
19,C[C@@H]1CCCCO[C@H](CN(C)S(=O)(=O)c2ccc(F)cc2)[C@H](C)CN([C@@H](C)CO)C(=O)c2cc(NC(=O)CCC(F)(F)F)ccc2O1,inactive: 1.03
20,Nc1ccc(Oc2ccc3ccccc3c2Cl)c(Cl)c1,inactive: 0.974
21,COc1ccc(S(=O)(=O)N(C)C[C@@H]2Oc3ncc(C#Cc4ccc(F)cc4)cc3C(=O)N([C@H](C)CO)C[C@@H]2C)cc1,inactive: 1.05

row,SMILES,relative growth
1,CCOc1ccc([C@@H](C)N)cc1OCC,inactive: 0.981
2,O=C(CCCCCC(=O)Nc1ccccc1O)N/N=C/[C@H](O)[C@@H](O)[C@H](O)[C@H](O)CO,inactive: 1
3,C[C@H]1CN([C@@H](C)CO)C(=O)Cc2cc(NC(=O)C3CCCCC3)ccc2O[C@@H]1CN(C)Cc1ccc(Cl)c(Cl)c1,inactive: 0.968
4,C[C@H](CO)N1C[C@H](C)[C@H](CN(C)Cc2ccc(C(F)(F)F)cc2)Oc2ccc(NC(=O)CCC(F)(F)F)cc2C1=O,inactive: 1.02
5,C[C@H]1CN([C@@H](C)CO)S(=O)(=O)c2ccc(-c3cncnc3)cc2O[C@H]1CN(C)C(=O)c1cccc(F)c1,inactive: 1.01
6,C[C@@H]1CN([C@H](C)CO)S(=O)(=O)c2ccc(C#Cc3ccccc3)cc2O[C@H]1CN(C)C(=O)CN(C)C,inactive: 1.01
7,C[C@@H](NC(=O)C[C@H]1CC[C@H](NC(=O)CN2CCOCC2)[C@H](CO)O1)c1ccccc1,inactive: 0.995
8,CC(C)CC#Cc1ccc2c(c1)O[C@H](CN(C)C(=O)Cc1ccncc1)[C@H](C)CN([C@H](C)CO)S2(=O)=O,inactive: 0.931
9,C[C@@H]1CN([C@H](C)CO)C(=O)c2cc(NC(=O)c3ccccc3)ccc2O[C@@H](C)CCCCO[C@H]1CN(C)Cc1ccc(C(F)(F)F)cc1,inactive: 1.03
10,C[C@H]1CN([C@@H](C)CO)C(=O)c2cc(NC(=O)Nc3cccc4ccccc34)ccc2O[C@@H]1CN(C)Cc1ccccc1,inactive: 0.991
11,C[C@@H]1CN([C@H](C)CO)C(=O)c2cc(NC(=O)Cc3ccccc3)ccc2O[C@@H](C)CCCCO[C@@H]1CN(C)C(=O)CCC(F)(F)F,inactive: 0.993
12,CCOC(=O)c1ccc(CNS(=O)(=O)c2ccc(S(=O)(=O)N3CCOCC3)cc2)o1,inactive: 0.997
13,NCC[C@H]1CC[C@H](NC(=O)NC2CCCCC2)[C@@H](CO)O1,inactive: 0.995
14,C[C@@H]1CN([C@@H](C)CO)C(=O)c2cccc(NC(=O)C3CCOCC3)c2O[C@@H]1CN(C)S(=O)(=O)c1cccs1,inactive: 0.986
15,COc1ccc(C#Cc2ccc3c(c2)O[C@@H](CN(C)S(=O)(=O)c2ccccc2F)[C@@H](C)CN([C@@H](C)CO)S3(=O)=O)cc1,inactive: 1.04
16,C[C@@H]1CCCCO[C@@H](CN(C)Cc2ccncc2)[C@@H](C)CN([C@@H](C)CO)C(=O)c2cc(NC(=O)NC3CCCCC3)ccc2O1,inactive: 0.997
17,C[C@H]1CCCCO[C@@H](CN(C)CC2CCCCC2)[C@@H](C)CN([C@@H](C)CO)C(=O)c2cc(NC(=O)Cc3ccccc3)ccc2O1,inactive: 1.02
18,C[C@H](CO)N1C[C@H](C)[C@@H](CN(C)C(=O)c2ccccc2)OCCCC[C@H](C)Oc2ccc(NC(=O)CCC(F)(F)F)cc2C1=O,inactive: 0.99
19,Cl.Nc1ccc(N=Nc2ccccc2)c(N)n1,inactive: 1.01
20,CO[C@@H]1CN(C)C(=O)c2cc(NC(=O)C3CCOCC3)ccc2OC[C@H](C)N(Cc2cccnc2)C[C@H]1C,inactive: 0.982
